According to article PMC9699427 (Viruses, 2022):

Assays:
[1] = system: HIV-1WAN; test: microbe, parasite or virus in culture; details: Human immunodeficiency virus 1, PBMC, read-out: EC50 (Mean ± SD)
[2] = system: HIV-1A17; test: microbe, parasite or virus in culture; details: Human immunodeficiency virus 1, C8166, read-out: EC50 (Mean ± SD)
[3] = system: HIV-1KIZ001; test: microbe, parasite or virus in culture; details: Human immunodeficiency virus 1, PBMC, read-out: EC50 (Mean ± SD)
[4] = system: HIV-1RF/V82F/184V; test: microbe, parasite or virus in culture; details: Human immunodeficiency virus 1, C8166, read-out: EC50 (Mean ± SD)
[5] = system: HIV-1IIIB; test: microbe, parasite or virus in culture; details: Human immunodeficiency virus 1, C8166, read-out: EC50 (Mean ± SD)
[6] = system: HIV-1_4755-5; test: microbe, parasite or virus in culture; details: Human immunodeficiency virus 1, C8166, read-out: EC50 (Mean ± SD)
[7] = system: pNL4-3GP41(36G)V38A,N42T; details: read-out: EC50 (Mean ± SD); pNL4-3GP41(36G)V38A,N42T (FI-resistant), C8166, p24
[8] = system: HIV-1TC-1; test: microbe, parasite or virus in culture; details: Human immunodeficiency virus 1, PBMC, read-out: EC50 (Mean ± SD)

Compound | EC50 [1] [nM] | EC50 [2] [nM] | EC50 [3] [nM] | EC50 [4] [nM] | EC50 [5] [nM] | EC50 [6] [nM] | EC50 [7] [nM] | EC50 [8] [nM]
Cc1cc(C#N)cc(C)c1Oc1nc(Nc2ccc(C#N)cc2)nc(N)c1Br [ETR, etravirine, reference compound] | 4.58 ± 0.89 | 25.9 ± 17.7 | 3.58 ± 0.62 | 0.21 ± 0.05 | 5.71 ± 1.31 | 3.72 ± 4.37 | < 0.13 | 2.27 ± 0.95
Cc1cc(C#N)cc(C)c1Oc1nc(NC2CCN(Cc3ccc(S(N)(=O)=O)cc3)CC2)nc2ccsc12 [K-5a2] | 5.56 ± 2.16 | 195 ± 78.7 | 2.16 ± 0.24 | 3.87 ± 0.98 | 6.11 ± 0.57 | 6.92 ± 7.47 | 2.55 ± 1.44 | 2.25 ± 0.87
